From PubChem BioAssay AID720542 (National Center for Advancing Translational Sciences (NCATS), 2013)
Among all 360,000 compounds or so, about 740 (0.21%) were called active. Inconclusive means that the source gave no clear call. Such entries were picked first, then a sample of the others. The call rests on the fitted dose curve; in most records, active means well fitted inhibition curve with a large enough effect; inconclusive means small, poorly fitted or top-dose-only effect; inactive means no such curve, though single readings can be large or run the other way. No potency is given beside an inconclusive call; the fits are too rough.

tested on: Plasmodium falciparum AMA1 (3D7) - RON2 peptide interaction; assay: qHTS for Inhibitors of AMA1-RON; Towards Development of Antimalarial Drug Lead: Primary Screen; conditions: AlphaScreen AMA1-biotinylated RON2 peptide binding; series mostly up to 58.2 µM; further: nearly all actives have a fitted effect of over 45% in size
Summary of the method: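 AMA1 (3D7) with his tag at 25 nM final met compounds first, then biotinylated RON2 peptide at 25 nM; detection used donor plus acceptor beads, 10 µg/mL apiece, read by AlphaScreen after 30 min at room temperature.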
Potency means the concentration at half of the fitted maximal effect; tags describe the fitted curve by direction and shape.

SMILES	Potency
COc1ccccc1NC(=S)NN=C(C)c1ccccn1	inconclusive [inhibitor, single point]
COC(=O)CC1COc2ccccc2N1S(=O)(=O)c1ccc(OC)cc1 (stereo unspecified)	inactive
O=C1c2ccccc2C(O)(c2ccccc2)N1c1ccncc1 (stereo unspecified)	inactive
Cc1cccc(NC(=O)CSc2nnc(-c3ccco3)c(-c3ccco3)n2)c1	inconclusive [inhibitor, partial curve]
CN1CCc2c(n(CC(O)CN3CCN(CCO)CC3)c3ccccc23)C1=O (stereo unspecified)	inactive
C=CCc1cc(OC)ccc1OCCCCn1cncn1	inconclusive [inhibitor, single point]
CSCCC(NC(=O)c1ccc([N+](=O)[O-])cc1Cl)C(=O)OCC(=O)C12CC3CC(CC(C3)C1)C2 (stereo unspecified)	inconclusive [inhibitor, partial curve]
OCC1(Cc2cccc(C(F)(F)F)c2)CCN(Cc2cc3ccccc3o2)CC1	inconclusive [inhibitor, partial curve]
O=C1/C(=C/c2ccc([N+](=O)[O-])cc2)C=C(c2ccccc2)N1c1ccc(O)cc1	inconclusive [inhibitor, full curve]
CN(CCCCCCN(C)Cc1ccccc1O)Cc1ccccc1O	inconclusive [inhibitor, partial curve]
S=C(c1ccccc1)N1CCCc2ccccc21	inconclusive [inhibitor, partial curve]
Nc1n[nH]c(N)c1N=Nc1ccc2c(c1)OCO2	inactive
COc1cc(OC)c(OC)cc1CCC(C)NCCC(c1ccccc1)c1ccccc1 (stereo unspecified)	inconclusive [inhibitor, single point]
CC(=O)NC(Cc1ccccc1)C(=O)NC1CCN(c2ncccc2[N+](=O)[O-])CC1 (stereo unspecified)	inconclusive [inhibitor, single point]
C[C@]12c3[nH]c4cc(-c5ccco5)ccc4c3CCN1C(=O)[C@@H](CC(=O)NCc1cccc(C(F)(F)F)c1)C[C@@H]2C(=O)N1CCCCC1	inconclusive [inhibitor, single point]
O=C(c1ccco1)N1CCC(N2CCN(c3ccccc3)CC2)CC1	inconclusive [inhibitor, partial curve]
O=C(Nc1ccccn1)c1cccs1	inactive
CC1(C)CC2CC(C)(CN2/C=N/c2sc3c(c2C#N)CC(C)(C)NC3(C)C)C1 (stereo unspecified)	inconclusive [inhibitor, partial curve]
CC(=O)c1cccc2c(O)c(C3=Nc4ccccc4C3=O)[nH]c12	inconclusive [inhibitor, full curve, poor fit]
Cc1ccc(NC2=C(NC(=O)c3ccccc3)C(=O)c3ccccc3C2=O)cc1Cl	inconclusive [inhibitor, single point]
C#CCN1C(=O)S/C(=C/C=C/c2ccc(N(C)C)cc2)C1=O	inconclusive [inhibitor, partial curve]
Cn1c(SCc2c(F)cccc2Cl)nc2c(c1=O)SCC2	inconclusive [inhibitor, single point]
CCOC(=O)CSc1nc2cc(C)ccc2cc1C#N	inactive
NS(=O)(=O)c1cccc(NC(=O)COC(=O)c2ccccc2SCC(=O)N2CCCC2)c1	inconclusive [inhibitor, full curve, poor fit]

SMILES	Potency
COc1ccccc1NC1=C(N2CCCCC2)C(=O)c2ccccc2C1=O	inconclusive [inhibitor, single point]
Nc1ccc(Oc2ccccc2-c2ccccc2)cc1	active: 22.4 µM
COc1cc(C(O)c2nc(-c3ccc(N(C)C)cc3)cs2)ccc1F (stereo unspecified)	active: 20 µM
O=[N+]([O-])c1ccccc1/C=C/C=N/N1CCCCC1	active: 10 µM
COc1ccc2ccccc2c1/C=N/Nc1cccc(C(=O)O)c1	inactive
COc1ccccc1NS(=O)(=O)c1cccc(C(=O)NCC2(N3CCCCC3)CCCCC2)c1	inactive
COc1cccc(OCc2cc(C(=O)N3CCN(C4CCCC4)CC3)no2)c1	inactive
COc1cc(CNC(C)(C)CO)ccc1OCC(=O)Nc1ccc(Br)cc1	inconclusive [inhibitor, full curve]
COc1ccc(C2=CC(=O)C[C@H](c3ccc(F)cc3)C2)cc1OC	inconclusive [inhibitor, single point]
CCCCC1(CCO)C(=O)NC(=S)NC1=O	inconclusive [inhibitor, single point]
COc1ccc2c(c1)C(c1ccc(N(CCCl)CCCl)cc1)=NCC2	inconclusive [inhibitor, single point]
O=C(Nc1ccc2c(c1)OCO2)C1Cc2c(-c3ccc(Cl)cc3)ccnc2O1 (stereo unspecified)	inconclusive [inhibitor, single point]
N#CCCN1CCN(C(=S)c2ccc(-c3cccc(Cl)c3)o2)CC1	inconclusive [inhibitor, single point]
O=C(N1CCOCC1)N1CCN(S(=O)(=O)N2CCCCC2)CC1	inactive
CC(Oc1ccc(Cl)cc1Cl)C(=O)NCCCN1CCOCC1 (stereo unspecified)	inactive
COC(=O)c1sccc1S(=O)(=O)Nc1ccc(N2CCCCC2)cc1	active: 14.1 µM
Cn1c(-c2ccc3c(c2)OCO3)cnc1NCc1ccccc1	inconclusive [inhibitor, single point]
O=C(CSc1nnc(CNc2ccc(F)cc2)o1)c1ccccc1	inactive
C/C(=N\N=C1\NC(=O)C(Cc2ccccc2)S1)c1ccccc1 (stereo unspecified)	inactive
CCOc1ccc2c(c1)C(C)=CC(C)(C)N2	inconclusive [inhibitor, partial curve]
CCCc1ccc(OCCNC(=O)CC)cc1	inactive
O=C(Cc1ccccc1)N1CCN(Cc2ccc([N+](=O)[O-])cc2)CC1	inconclusive [inhibitor, single point]
Cc1cc(F)ccc1NCc1ccc([N+](=O)[O-])cc1	inconclusive [inhibitor, partial curve]
CN1CCN(CCCCOc2ccccc2C=O)CC1	inconclusive [inhibitor, single point]

SMILES	Potency
CCCN(CC1CC1)c1cc2c(c3c1ccn3C)C1CCC2O1 (stereo unspecified)	inconclusive [inhibitor, partial curve]
CC(=O)NS(=O)(=O)c1ccc(N=c2ssc3c2-c2cc(C)c(C)cc2NC3(C)C)cc1	inconclusive [inhibitor, partial curve]
COc1ccc(C(C(=O)NC(C)(C)C)N(Cc2ccc(C)cc2)C(=O)CCC(=O)Nc2cc(C)on2)cc1 (stereo unspecified)	inconclusive [inhibitor, partial curve]
C(=C\n1nnc2ccccc21)/c1ccc[nH]1	inconclusive [inhibitor, single point]
O=C(CCCC(=O)N(c1ccc2c(c1)OCCO2)C(C(=O)NC1CCCCC1)c1ccc(F)cc1)Nc1ccccn1 (stereo unspecified)	inactive
O=C(Cc1ccc(Cl)c(Cl)c1)NC1CCCCCC1	inactive
COc1ccc(OC2(C)CCN(Cc3ccc(-c4ccccc4)o3)C2)cc1 (stereo unspecified)	inconclusive [inhibitor, partial curve]
O=C(CSc1nnc2c(n1)[nH]c1ccc(F)cc12)NC1CC1	inactive
CCOc1ccccc1N/C(=C(/C(Cl)=C(Cl)Cl)[N+](=O)[O-])n1cncn1	inconclusive [inhibitor, partial curve]
COc1ccc(CC(=O)N/N=C/c2cccn2-c2ccc([N+](=O)[O-])cc2)cc1OC	inconclusive [inhibitor, partial curve]
CC(C)CN(C(=O)CSc1nnc2ccccn12)C1CCS(=O)(=O)C1 (stereo unspecified)	inactive
COc1ccc(CNc2ncc(-c3ccccc3)n2C)c2ccccc12	inconclusive [inhibitor, partial curve]
COc1cccc(C(=O)NCC(c2cccs2)N2CCc3ccccc32)c1 (stereo unspecified)	inconclusive [inhibitor, partial curve]
COc1ccc(N2CCN(Cc3nc(N)nc(Nc4ccc(C)c(Cl)c4)n3)CC2)cc1	inconclusive [inhibitor, partial curve]
c1ccc(C2CCC(N3CCN(c4ccccc4)CC3)CC2)cc1 (stereo unspecified)	inconclusive [inhibitor, single point]
Cc1ccc(Oc2nc(CN3CCOCC3)nc3sc4c(c23)CCC(C)C4)cc1 (stereo unspecified)	inconclusive [inhibitor, partial curve]
CCOC(=O)C1CCCN(Cc2ccc3c(c2)OCO3)C1 (stereo unspecified)	inconclusive [inhibitor, single point]
COc1cc(C)c2sc3ccccc3c(=O)c2c1NCCN(C)C	inconclusive [inhibitor, single point]
O=C(O)c1ccc(-c2nc(-c3ccc(Cl)cc3Cl)cs2)cc1	inconclusive [inhibitor, partial curve]
Cc1nc(N)sc1-c1nnc(SCC(=O)Nc2nccs2)n1C	inactive
COC(=O)c1cccc(Cn2c(Cl)c(/C=N/Nc3ccccc3C)sc2=O)c1	inconclusive [inhibitor, partial curve]
Cc1noc(C)c1COc1ccc(C(=O)OC(C)C(=O)Nc2ccc(N3CCOCC3)cc2)cc1 (stereo unspecified)	inconclusive [inhibitor, full curve, poor fit]
COc1cc2c(cc1O)C(CSC)Cc1cc3c(cc1N(C)CC2)OCO3 (stereo unspecified)	inconclusive [inhibitor, single point]
